Test results reported in paper PMC12434519 (ACS Medicinal Chemistry Letters, 2025).

Target: SARS-CoV-2 NSP14 (Severe acute respiratory syndrome coronavirus 2, UniProt P0DTD1)
Test: biochemical
[1] = LUM % inhibition, read-out: SARS-CoV-2 NSP14 inhibition: IC50
[2] = LUM % inhibition, read-out: SARS-CoV-2 NSP14 inhibition: Maximum response
[3] = fit of concentration-response curve
[4] = TDI-015051 series, retrospective VS set, biochemical MTase assay, read-out: Merged IC50
[5] = Hill slope of the concentration-response fit
[6] = maximum response, LUM % inhibition, read-out: SARS-CoV-2 NSP14 inhibition: Maximum response (%)
[7] = read-out: SARS-CoV-2 NSP14 inhibition: IC50

With O=C(NCc1nccc2ccccc12)c1ccc(Cl)c(S(=O)(=O)N2CCCCCC2)c1 [RU-0833917] as the molecule, how does the IC50 [1] read?
The IC50 was 12 µM.

What about the Emax [2] of the same molecule?
Its Emax is 58.2%.

And the “SARS-CoV-2 NSP14 inhibition: Hill slope” value [3]?
The value was 0.938.

For O=C(NCC1COc2ccccc2O1)c1cccc(S(=O)(=O)N2CCc3ccccc32)c1 (stereo not drawn) [RU-0833900], which IC50 [1] is on record?
The IC50 was greater than 125 µM.

And the Emax [2]?
The Emax was 10.3%.

And the “SARS-CoV-2 NSP14 inhibition: Hill slope” value [3]?
Its value is 108.

Which IC50 [4] does the source give for Cc1n[nH]c(C)c1CNC(=O)c1cc(S(=O)(=O)c2ccc3[nH]ncc3c2)c(C)n1C [TDI-016594, Cc1n[nH]c(C)c1CNC(=O)c1cc(S(=O)(=O)c2ccc3[nH]ncc3c2)c(C)n1C] here?
The IC50 was 0.0251 µM.

Which results are given for Cc1cc(C(=O)NCC2(C)CCC(NC(=O)c3cnn4ccn(C)c34)C2)cc(C)c1O (stereo not drawn) [RU-0834107]?
IC50 [1]: > 125 µM; Emax [2]: 10.9%; SARS-CoV-2 NSP14 inhibition: Hill slope [3]: 84

For Cc1cc(C(=O)NCC2CCN(C(=O)c3cnn4ccn(C)c34)CC2O)cc(C)c1O (stereo not drawn) [RU-0834105], which IC50 [1] is on record?
Its IC50 is greater than 125 µM.

What about the Emax [2] of the same molecule?
Its Emax is 16.2%.

And the “SARS-CoV-2 NSP14 inhibition: Hill slope” value [3]?
The value was 10.9.

For Cc1c(S(=O)(=O)c2cc(Cl)c3[nH]ncc3c2)cc(C(=O)NCc2ccnn2C)n1C [TDI-016469, Cc1c(S(=O)(=O)c2cc(Cl)c3[nH]ncc3c2)cc(C(=O)NCc2ccnn2C)n1C], which IC50 [4] is on record?
Its IC50 is 0.000596 µM.

For CN(c1ccccc1)S(=O)(=O)c1cccc(NC(=O)Cc2nn(C)c(=O)c3ccccc23)c1 [RU-0833684], which “SARS-CoV-2 NSP14 inhibition: Hill slope” value [5] is on record?
Its value is 48.1.

What about the Emax [6] of the same molecule?
The Emax was -0.611%.

And the IC50 [7]?
Its IC50 is greater than 62.5 µM.

For O=C(NC1CC1)c1ccc(CNC(=O)N2CCc3cc(F)ccc32)cc1 [RU-0833941], which IC50 [1] is on record?
Its IC50 is greater than 125 µM.

What about the Emax [2] of the same molecule?
Its Emax is 24.3%.

And the “SARS-CoV-2 NSP14 inhibition: Hill slope” value [3]?
Its value is 0.63.

With O=C(NC1CCOc2ccccc21)c1cccc(OCc2cn3ccccc3n2)c1 (stereo not drawn) [RU-0833914] as the molecule, how does the IC50 [1] read?
The IC50 was greater than 125 µM.

And the Emax [2]?
Its Emax is 26.6%.

And the “SARS-CoV-2 NSP14 inhibition: Hill slope” value [3]?
The value was 0.523.

With Cc1c([S+]([O-])c2cc(Cl)c3[nH]ncc3c2)cc(C(=O)NCc2c(Cl)cnn2C)n1C (stereo not drawn) [TDI-016715, Cc1c(S(=O)c2cc(Cl)c3[nH]ncc3c2)cc(C(=O)NCc2c(Cl)cnn2C)n1C] as the molecule, how does the IC50 [4] read?
Its IC50 is 0.0272 µM.

What does the source list for Cc1cc(C(=O)NCCC2CCC(NC(=O)c3cccn4ccnc34)C2)ccc1O (stereo not drawn) [RU-0834124]?
IC50 [1]: 12.9 µM; Emax [2]: 30.7%; SARS-CoV-2 NSP14 inhibition: Hill slope [3]: 1

What does the source list for C=C1Nc2cc(C)nn2C(C)=C1CCC(=O)NCCS(=O)(=O)N1CCc2ccccc21 [RU-0833895]?
IC50 [1]: > 125 µM; Emax [2]: 15.2%; SARS-CoV-2 NSP14 inhibition: Hill slope [3]: 1.25

With Cc1c(C(=O)NCc2ccc(CNC(=O)c3n[nH]c4ccccc34)cc2)ccc2cncn12 [RU-0834168] as the molecule, how does the IC50 [1] read?
The IC50 was 10.3 µM.

And the Emax [2]?
Its Emax is 47.6%.

What about the “SARS-CoV-2 NSP14 inhibition: Hill slope” value [3] of the same molecule?
The value was 1.32.

Which “SARS-CoV-2 NSP14 inhibition: Hill slope” value [5] does the source give for CN(CC(=O)Nc1ccnn1Cc1ccncc1)S(=O)(=O)c1ccc2ccccc2c1 [RU-0833669] here?
Its value is 0.475.

And the Emax [6]?
Its Emax is 9.76%.

What about the IC50 [7] of the same molecule?
The IC50 was greater than 62.5 µM.

What does the source list for O=C(NC1CCSc2ccccc21)C1CCN(C(=O)c2ccc(F)cc2F)CC1 (stereo not drawn) [RU-0833936]?
IC50 [1]: > 125 µM; Emax [2]: 9.41%; SARS-CoV-2 NSP14 inhibition: Hill slope [3]: 2.18

Cc1cc(C(=O)N2C[C@@H]3[C@@H](CNC(=O)c4cnc5ncccn45)[C@@H]3C2)cc2cn[nH]c12 [RU-0834153] was tested. Which IC50 [1] did it give?
The IC50 was greater than 125 µM.

What about the Emax [2] of the same molecule?
The Emax was 23.8%.

What about the “SARS-CoV-2 NSP14 inhibition: Hill slope” value [3] of the same molecule?
Its value is 0.968.

How did the IC50 [1] turn out when Cc1cccc(CNC(=O)c2cn(CC3CC(=O)N(Cc4ccccc4)C3)nn2)c1 (stereo not drawn) [RU-0833892] was run?
The IC50 was greater than 125 µM.

What about the Emax [2] of the same molecule?
Its Emax is 9.38%.

And the “SARS-CoV-2 NSP14 inhibition: Hill slope” value [3]?
Its value is 48.7.

What does the source list for O=C(C1CCCC1)N1CC(S(=O)(=O)N[C@@H]2C[C@@H]2c2c(F)cccc2F)C1 [RU-0833635]?
SARS-CoV-2 NSP14 inhibition: Hill slope [5]: 0.114; Emax [6]: 0.75%; IC50 [7]: > 62.5 µM

Which results are given for O=C(N[C@@H]1CCOc2ccccc21)c1cccc(S(=O)(=O)Nc2ccccc2F)c1 [RU-0833676]?
SARS-CoV-2 NSP14 inhibition: Hill slope [5]: 0.925; Emax [6]: 3.31%; IC50 [7]: > 62.5 µM

How did the “SARS-CoV-2 NSP14 inhibition: Hill slope” value [5] turn out when COc1ccc(NS(=O)(=O)c2cc(NC(=O)Cc3ccc(OC)cc3OC)ccc2C)cc1 [RU-0833664] was run?
Its value is 4.68.

What about the Emax [6] of the same molecule?
Its Emax is 4.52%.

And the IC50 [7]?
The IC50 was greater than 62.5 µM.

Which IC50 [1] does the source give for O=C(CCn1nc2ccccn2c1=O)NCCc1c(F)cccc1F [RU-0833875] here?
The IC50 was greater than 125 µM.

What about the Emax [2] of the same molecule?
Its Emax is 14.9%.

What about the “SARS-CoV-2 NSP14 inhibition: Hill slope” value [3] of the same molecule?
The value was 17.4.

With Cc1c(F)ccc(C(=O)NCc2ccc(CNC(=O)c3cccc(CO)c3)cc2)c1C [RU-0834095] as the molecule, how does the IC50 [1] read?
Its IC50 is 74.8 µM.

What about the Emax [2] of the same molecule?
Its Emax is 36.8%.

What about the “SARS-CoV-2 NSP14 inhibition: Hill slope” value [3] of the same molecule?
Its value is 0.616.

Which results are given for Cc1ccc(N(C)S(=O)(=O)c2cccc(C(=O)N[C@H](C)c3ccc4c(c3)OCCO4)c2)cc1 [RU-0833659]?
SARS-CoV-2 NSP14 inhibition: Hill slope [5]: 46.6; Emax [6]: -1.59%; IC50 [7]: > 62.5 µM

How did the IC50 [1] turn out when O=C(NCC1COc2ccccc2O1)c1cccc(S(=O)(=O)N2CCCCCC2)c1 (stereo not drawn) [RU-0833899] was run?
The IC50 was greater than 125 µM.

And the Emax [2]?
The Emax was 11.5%.

What about the “SARS-CoV-2 NSP14 inhibition: Hill slope” value [3] of the same molecule?
The value was 11.5.

With Cn1ccc2cc(S(=O)(=O)N3CCCC(C(=O)NCc4ccccc4Cl)C3)ccc21 (stereo not drawn) [RU-0833888] as the molecule, how does the IC50 [1] read?
The IC50 was greater than 125 µM.

And the Emax [2]?
The Emax was 10.8%.

What about the “SARS-CoV-2 NSP14 inhibition: Hill slope” value [3] of the same molecule?
The value was 7130.

Cc1c(S(=O)(=O)N2CCc3[nH]ncc3C2)cc(C(=O)N[C@@H]2CCN(c3ccc(C#N)cn3)C2)n1C [TDI-017304, Cc1c(S(=O)(=O)N2CCc3[nH]ncc3C2)cc(C(=O)N[C@@H]2CCN(c3ccc(C#N)cn3)C2)n1C] was tested. Which IC50 (Merged IC50 (µM), TDI-015051 series, retrospective VS set, biochemical MTase assay) did it give?
The IC50 was 0.000146 µM.

Which results are given for COc1ccccc1NS(=O)(=O)c1cc(C(=O)NCc2nc3ccccc3[nH]2)ccc1Cl [RU-0833662]?
SARS-CoV-2 NSP14 inhibition: Hill slope [5]: 1.03; Emax [6]: 11.5%; IC50 [7]: > 62.5 µM

What does the source list for O=C(NCc1cccc(NC(=O)c2n[nH]c3ncccc23)c1)c1ccc2c(n1)CCC2 [RU-0833940]?
IC50 [1]: 14.9 µM; Emax [2]: 128%; SARS-CoV-2 NSP14 inhibition: Hill slope [3]: 1.15

For C[C@H](NC(=O)c1cccc(S(=O)(=O)N2CCCC2)c1)c1nnc2ccccn12 [RU-0833630], which “SARS-CoV-2 NSP14 inhibition: Hill slope” value [5] is on record?
Its value is 0.819.

And the Emax [6]?
Its Emax is 2.9%.

And the IC50 [7]?
Its IC50 is greater than 62.5 µM.

CN(C)C(=O)CNc1cccc(C(=O)N2CCC[C@H](CO)C2)c1 [RU-0833626] was tested. Which “SARS-CoV-2 NSP14 inhibition: Hill slope” value [5] did it give?
Its value is 0.165.

What about the Emax [6] of the same molecule?
Its Emax is 1.92%.

What about the IC50 [7] of the same molecule?
The IC50 was greater than 62.5 µM.

Cc1cccc(S(=O)(=O)c2ccc(=O)n(CC(=O)NCc3ccccc3Cl)n2)c1 [RU-0833884] was tested. Which IC50 [1] did it give?
Its IC50 is greater than 125 µM.

What about the Emax [2] of the same molecule?
Its Emax is 15.1%.

And the “SARS-CoV-2 NSP14 inhibition: Hill slope” value [3]?
The value was 333.

How did the IC50 [1] turn out when CC(CNC(=O)CN(C)S(=O)(=O)c1ccc(F)cc1)c1nc2ccccc2n1C(F)F (stereo not drawn) [RU-0833909] was run?
The IC50 was greater than 125 µM.

And the Emax [2]?
The Emax was 12.9%.

What about the “SARS-CoV-2 NSP14 inhibition: Hill slope” value [3] of the same molecule?
The value was 0.185.

With O=C(Nc1cccc(CNC(=O)c2c[nH]c3cc(F)ccc23)c1)c1ccncc1 [RU-0833634] as the molecule, how does the “SARS-CoV-2 NSP14 inhibition: Hill slope” value [5] read?
The value was 1.54.

And the Emax [6]?
Its Emax is 14.3%.

And the IC50 [7]?
Its IC50 is greater than 62.5 µM.

For Cc1sc(C(=O)NCc2cccnc2N2CCCC2)cc1S(=O)(=O)N1CCn2nccc2C1 [TDI-014253, Cc1sc(C(=O)NCc2cccnc2N2CCCC2)cc1S(=O)(=O)N1CCn2nccc2C1], which IC50 [4] is on record?
Its IC50 is 0.0957 µM.

Cc1c(S(=O)(=O)N2CCn3cncc3C2)cc(C(=O)NCc2cccc3cnccc23)n1C [TDI-014695, Cc1c(S(=O)(=O)N2CCn3cncc3C2)cc(C(=O)NCc2cccc3cnccc23)n1C] was tested. Which IC50 [4] did it give?
The IC50 was 0.00249 µM.

Which IC50 [1] does the source give for Cc1c(CO)cccc1C(=O)NCc1cccc2c1CN(C(=O)c1cc(CCO)on1)C2 [RU-0834097] here?
Its IC50 is greater than 125 µM.

What about the Emax [2] of the same molecule?
The Emax was 20.2%.

And the “SARS-CoV-2 NSP14 inhibition: Hill slope” value [3]?
Its value is 1.42.

Which IC50 [1] does the source give for COc1ccc(NC(=O)CNC(=O)c2ccccc2F)cc1S(=O)(=O)Nc1ccccc1Cl [RU-0833904] here?
The IC50 was greater than 125 µM.

And the Emax [2]?
The Emax was 15.2%.

And the “SARS-CoV-2 NSP14 inhibition: Hill slope” value [3]?
The value was 8.4.

Read-outs that look alike come from different tables or passages of the source.
